{
  "source": "patent US20220009991A1",
  "about": "(SILVER CREEK PHARMACEUTICALS, published 2022)",
  "binders": {"B1": {"name": "SGF 730 (other)", "chain": "MFPAMPLSSLFVNGPRTLCGAELVDALQFVCGDRGFYFNKPTGYGSSSRAPQTGIVDECCFRSCDLRRLEMYCAPLKPAGSGGSGGGSGGSGGGDAHKSEVAHRFKDLGEENFKALVLIAFAQYLQQSPFEDHVKLVNEVTEFAKTCVADESAENCDKSLHTLFGDKLCTVATLRETYGEMADCCAKQEPERNECFLQHKDDNPNLPRLVRPEVDVMCTAFHDNEETFLKKYLYEIARRHPYFYAPELLFFAKRYKAAFTECCQAADKAACLLPKLDELR[sequence of about 200 residues not given]NLIKQNCELFEQLGEYKFQNALLVRYTKKVPQVSTPTLVEVSRNLGKVGSKCCKHPEAKRMPCAEDYLSVVLNQLCVLHEKTPVSDRVTKCCTESLVNRRPCFSALEVDETYVPKEFQAGTFTFHADICTLSEKERQIKKQTALVELVKHKPKATKEQLKAAMDDFAAFVEKCCKADDKETCFAEEGKKLVAASQAALGLGSGGSGGGSGGSGGGAQVLRGTVTDFPGFDERADAETLRKAMKGLGTDEESILTLLTSRSNAQRQEISAAFKTLFGADLLDDLASELTGKFEKLIVALMKPSRLYDAYELKHALAGAGTNEKVLTEIIASRTPEELRAIKQVYEEEYGSSLAGDVVGDTSGYYQRMLVVLLQAARDPDAGIDEAQVEQDAQALFQAGELKWGTDEEKFITIFGTRSVSHLRKVFDKYMTISGFQIEETIDRETSGNLEQLLLAVVKSIRSIPAYLAETLYYAMKGAGTDDHTLIRVMVSRSEIDLFNIRKEFRKNFATSLYSMIKGDTSGDYKKALLLLCGEDD"}, "B2": {"name": "SGF 704 (other)", "chain": "MFPAMPLSSLFVN[sequence of about 80 residues not given]GSGGSGGGSGGSGGGDAHKSEVAHRFKDLGEENFKALVLIAFAQYLQQSPFEDHVKLVNEVTEFAKTCVADESAENCDKSLHTLFGDKLCTVATLRETYGEMADCCAKQEPERNECFLQHKDDNPNLPRLVRPEVDVMCTAFHDNEETFLKKYLYEIARRHPYFYAPELLFFAKRYKAAFTECCQAADKAACLLPKLDELR[sequence of about 200 residues not given]NLIKQNCELFEQLGEYKFQNALLVRYTKKVPQVSTPTLVEVSRNLGKVGSKCCKHPEAKRMPCAEDYLSVVLNQLCVLHEKTPVSDRVTKCCTESLVNRRPCFSALEVDETYVPKEFQAGTFTFHADICTLSEKERQIKKQTALVELVKHKPKATKEQLKAAMDDFAAFVEKCCKADDKETCFAEEGKKLVAASQAALGL"}, "B3": {"name": "SGF 688 (Fc fusion)", "chain": "MFPAMPLSSLFVNGPRTLCGAELVDALQFVCGDRGFYFNKPTGYGSSSRAPQTGIVDECCFRSCDLRRLEMYCAPLKPAGSGGSGGGSGGGSGGGSGGGSGGGSGGGSGGGSGGGSGGG[sequence of human IgG1 Fc with changes not given]"}, "B4": {"name": "SGF 649 (Fc fusion)", "chain": "MFPAMPLSSLFVN[sequence of about 80 residues not given]GSGGSGGGSGGGSGGGSGGGSGGGSGGGSGGGSGGGSGGG[sequence of human IgG1 Fc with changes not given]SGGSGGGSGGGSGGGSGGGSGGGSGGGSGGGSGGGSGGGAQVLRGTVTDFPGFDERADAETLRKAMKGLGTDEESILTLLTSRSNAQRQEISAAFKTLFGRDLLDDLKSELTGKFEKLIVALMKPSRLYDAYELKHALKGAGTNEKVLTEIIASRTPEELRAIKQVYEEEYGSSLEDDVVGDTSGYYQRMLVVLLQANRDPDAGIDEAQVEQDAQALFQAGELKWGTDEEKFITIFGTRSVSHLRKVFDKYMTISGFQIEETIDRETSGNLEQLLLAVVKSIRSIPAYLAETLYYAMKGAGTDDHTLIRVMVSRSEIDLFNIRKEFRKNFATSLYSMIKGDTSGDYKKALLLLSGEDD"}, "B5": {"name": "SGF 683 (Fc fusion)", "chain": "MFPAMPLSSLFVNGPRTLCGAELVDALQFVCGDRGFYFNKPTGYGSSSRAPQTGIVDECCFRSCDLRRLEMYCAPLKPAGSGGSGGGSGGGSGGGSGGGSGGGSGGGSGGGSGGGSGGG[sequence of human IgG1 Fc with changes not given]SGGSGGGSGGGSGGGSGGGSGGGSGGGSGGGSGGGSGGGAQVLRGTVTDFPGFDERADAETLRKAMKGLGTDEESILTLLTSRSNAQRQEISAAFKTLFGRDLLDDLKSELTGKFEKLIVALMKPSRLYDAYELKHALKGAGTNEKVLTEIIASRTPEELRAIKQVYEEEYGSSLEDDVVGDTSGYYQRMLVVLLQANRDPDAGIDEAQVEQDAQALFQAGELKWGTDEEKFITIFGTRSVSHLRKVFDKYMTISGFQIEETIDRETSGNLEQLLLAVVKSIRSIPAYLAETLYYAMKGAGTDDHTLIRVMVSRSEIDLFNIRKEFRKNFATSLYSMIKGDTSGDYKKALLLLSGEDDGSGGSGGGSGGGSGGGSGGGSGGGSGGGSGGGSGGGSGSGAQVLRGTVTDFPGFDERADAETLRKAMKGLGTDEESILTLLTSRSNAQRQEISAAFKTLFGRDLLDDLKSELTGKFEKLIVALMKPSRLYDAYELKHALKGAGTNEKVLTEIIASRTPEELRAIKQVYEEEYGSSLEDDVVGDTSGYYQRMLVVLLQANRDPDAGIDEAQVEQDAQALFQAGELKWGTDEEKFITIFGTRSVSHLRKVFDKYMTISGFQIEETIDRETSGNLEQLLLAVVKSIRSIPAYLAETLYYAMKGAGTDDHTLIRVMVSRSEIDLFNIRKEFRKNFATSLYSMIKGDTSGDYKKALLLLSGEDD"}, "B6": {"name": "SGF 731 (other)", "chain": "MFPAMPLSSLFVNGPRTLCGAELVDALQFVCGDRGFLFNKPTGAGSSSRRAPQTGIVDECCFRSCDLRRLEMYCAPLKPAKSAGSGGSGGGSGGSGGGDAHKSEVAHRFKDLGEENFKALVLIAFAQYLQQSPFEDHVKLVNEVTEFAKTCVADESAENCDKSLHTLFGDKLCTVATLRETYGEMADCCAKQEPERNECFLQHKDDNPNLPRLVRPEVDVMCTAFHDNEETFLKKYLYEIARRHPYFYAPELLFFAKRYKAAFTECCQAADKAACLLPKLDELR[sequence of about 200 residues not given]NLIKQNCELFEQLGEYKFQNALLVRYTKKVPQVSTPTLVEVSRNLGKVGSKCCKHPEAKRMPCAEDYLSVVLNQLCVLHEKTPVSDRVTKCCTESLVNRRPCFSALEVDETYVPKEFQAGTFTFHADICTLSEKERQIKKQTALVELVKHKPKATKEQLKAAMDDFAAFVEKCCKADDKETCFAEEGKKLVAASQAALGLGSGGSGGGSGGSGGGAQVLRGTVTDFPGFDERADAETLRKAMKGLGTDEESILTLLTSRSNAQRQEISAAFKTLFGADLLDDLASELTGKFEKLIVALMKPSRLYDAYELKHALAGAGTNEKVLTEIIASRTPEELRAIKQVYEEEYGSSLAGDVVGDTSGYYQRMLVVLLQAARDPDAGIDEAQVEQDAQALFQAGELKWGTDEEKFITIFGTRSVSHLRKVFDKYMTISGFQIEETIDRETSGNLEQLLLAVVKSIRSIPAYLAETLYYAMKGAGTDDHTLIRVMVSRSEIDLFNIRKEFRKNFATSLYSMIKGDTSGDYKKALLLLCGEDD"}},
  "data": [
    {"target": "IGF-1 receptor (UniProt P08069 31-1367)", "sequence (P08069 31-1367)": "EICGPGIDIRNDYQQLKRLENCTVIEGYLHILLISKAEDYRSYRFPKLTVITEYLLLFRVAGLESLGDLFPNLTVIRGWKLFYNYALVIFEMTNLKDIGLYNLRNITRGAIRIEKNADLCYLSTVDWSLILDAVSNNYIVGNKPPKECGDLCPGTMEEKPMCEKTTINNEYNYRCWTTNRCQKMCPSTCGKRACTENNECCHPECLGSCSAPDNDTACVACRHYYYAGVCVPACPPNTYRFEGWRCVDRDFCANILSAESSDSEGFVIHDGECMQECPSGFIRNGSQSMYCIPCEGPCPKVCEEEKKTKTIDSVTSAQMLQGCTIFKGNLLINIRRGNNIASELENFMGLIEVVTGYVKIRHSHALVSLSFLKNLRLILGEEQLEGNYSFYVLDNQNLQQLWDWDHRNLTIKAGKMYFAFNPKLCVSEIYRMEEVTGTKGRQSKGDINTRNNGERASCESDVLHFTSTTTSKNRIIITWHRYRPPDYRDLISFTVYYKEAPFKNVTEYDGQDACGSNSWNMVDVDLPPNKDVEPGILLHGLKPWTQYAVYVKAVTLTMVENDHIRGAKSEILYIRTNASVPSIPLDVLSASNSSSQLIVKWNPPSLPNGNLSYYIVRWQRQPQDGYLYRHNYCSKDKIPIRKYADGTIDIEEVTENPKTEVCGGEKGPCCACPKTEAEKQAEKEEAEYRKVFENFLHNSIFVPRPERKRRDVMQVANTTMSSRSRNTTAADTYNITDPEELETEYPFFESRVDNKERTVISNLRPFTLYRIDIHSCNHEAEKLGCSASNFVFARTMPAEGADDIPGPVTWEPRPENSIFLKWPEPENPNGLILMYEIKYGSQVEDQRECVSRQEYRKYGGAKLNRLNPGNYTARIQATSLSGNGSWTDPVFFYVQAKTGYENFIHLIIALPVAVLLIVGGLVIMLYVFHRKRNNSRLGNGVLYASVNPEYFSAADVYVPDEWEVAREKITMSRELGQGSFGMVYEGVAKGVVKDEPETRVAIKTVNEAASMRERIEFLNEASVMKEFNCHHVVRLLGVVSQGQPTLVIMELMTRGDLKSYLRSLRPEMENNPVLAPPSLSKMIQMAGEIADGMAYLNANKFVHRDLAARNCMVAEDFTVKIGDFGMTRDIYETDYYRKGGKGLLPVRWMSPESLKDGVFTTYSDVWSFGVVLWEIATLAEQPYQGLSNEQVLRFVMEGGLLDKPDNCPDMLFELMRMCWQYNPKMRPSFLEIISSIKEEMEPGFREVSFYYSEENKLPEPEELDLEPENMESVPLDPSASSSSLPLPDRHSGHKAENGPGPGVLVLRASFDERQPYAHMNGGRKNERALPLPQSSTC", "test": "cell-based or functional assay", "units": {"potency reduction (pAKT EC50fusion/EC50wt IGF1), iPSC-derived cardiomyocytes": "fold"}, "values": [
      {"binder": "B1", "potency reduction (pAKT EC50fusion/EC50wt IGF1), iPSC-derived cardiomyocytes": "≥ 6"},
      {"binder": "B2", "potency reduction (pAKT EC50fusion/EC50wt IGF1), iPSC-derived cardiomyocytes": "≥ 6"},
      {"binder": "B3", "potency reduction (pAKT EC50fusion/EC50wt IGF1), iPSC-derived cardiomyocytes": "≤ 2"},
      {"binder": "B4", "potency reduction (pAKT EC50fusion/EC50wt IGF1), iPSC-derived cardiomyocytes": "≤ 2"},
      {"binder": "B5", "potency reduction (pAKT EC50fusion/EC50wt IGF1), iPSC-derived cardiomyocytes": "≥ 6"},
      {"binder": "B6", "potency reduction (pAKT EC50fusion/EC50wt IGF1), iPSC-derived cardiomyocytes": "≥ 6"}
    ]}
  ]
}
